Laboratory results taken from PubChem BioAssay AID1159614 (National Center for Advancing Translational Sciences (NCATS), 2016).
Screen size: about 45,000 compounds; about 65 (0.1%) were called active. Calls follow the shape of the dose curve; as a rule, active = well fitted activation curve with a large enough effect; inconclusive = small, poorly fitted or top-dose-only effect; inactive = no such curve, though single readings can be large or run the other way. This is one part of the list.

These compounds were tested against Galactocerebrosidase (Homo sapiens) (UniProt P54803) (assay: A Novel Cell-Based Assay to Identify Small Molecules for B -Galactocerebrosidase). Details: 145M-Twi-hGALC-G270D cells (Twitcher mouse brain line with human GALC G270D), HMU-beta-Gal fluorescence, 48 h; series mostly up to 57.5 µM; activation: at the top concentration.
Method in brief: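 Fluorogenic HMU-b-Gal hydrolysis (0.1 mM final, pH 5.2 citrate-phosphate with 1 mg/mL sodium taurocholate; carbonate stop buffer) measures mutant GALC activity after compound treatment of live 145M-Twi Twitcher brain cells stably carrying human GALC-G270D, with wild-type GALC line alongside; activation sought.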
Also: 0% is about no effect; nearly all actives have a fitted effect of over 65% in size.

UniProt P54803, sequence (P54803 whole entry, looked up): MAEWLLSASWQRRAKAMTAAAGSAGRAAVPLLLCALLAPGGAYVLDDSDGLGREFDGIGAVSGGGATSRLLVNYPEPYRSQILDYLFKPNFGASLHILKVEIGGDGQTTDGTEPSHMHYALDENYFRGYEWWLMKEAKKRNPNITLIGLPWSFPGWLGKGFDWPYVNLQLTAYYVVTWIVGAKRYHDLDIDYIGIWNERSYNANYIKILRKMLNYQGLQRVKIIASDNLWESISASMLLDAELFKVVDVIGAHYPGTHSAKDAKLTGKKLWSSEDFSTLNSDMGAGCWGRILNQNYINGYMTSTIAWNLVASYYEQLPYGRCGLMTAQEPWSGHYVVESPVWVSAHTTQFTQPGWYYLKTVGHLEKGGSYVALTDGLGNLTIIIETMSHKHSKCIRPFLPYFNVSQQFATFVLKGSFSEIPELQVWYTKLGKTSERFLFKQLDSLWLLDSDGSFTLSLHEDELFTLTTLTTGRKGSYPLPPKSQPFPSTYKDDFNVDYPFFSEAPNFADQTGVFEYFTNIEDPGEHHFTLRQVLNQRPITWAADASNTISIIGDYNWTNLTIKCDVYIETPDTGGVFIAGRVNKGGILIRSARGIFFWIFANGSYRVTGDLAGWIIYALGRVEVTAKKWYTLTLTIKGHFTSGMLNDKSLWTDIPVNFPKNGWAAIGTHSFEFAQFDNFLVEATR

activation, inactive:
COc1ccc(C(CC(=O)Nc2ccc(C(C)=O)cc2)N2Cc3ccccc3C2=O)cc1 (configuration not stated) -10.5%, Cc1cccc2c1-c1sc(C(=O)N(C)c3cccc(Cl)c3)cc1CO2 -14.5%, CC(C)c1cnc2c(c1SCC(=O)NCc1ccccc1Cl)c(=O)n(C)c(=O)n2C -4.13%, O=C(c1ccc2c(c1)N(Cc1cccc(F)c1)C(=O)c1ccccc1S2)N1CCCC1 -18.9%, Cc1cccc(N2CCN(C(=O)c3noc4c3COc3ccc(C)cc3-4)CC2C)c1 (configuration not stated) -0.994%, Cc1ccc(CN2C(=O)c3ccccc3CC2(C)C(=O)NC2CCCCC2)cc1 (configuration not stated) -15.5%, COc1ccc(NC(=O)NC2COc3ccccc3C2)cc1Cl (configuration not stated) -12.6%, Cc1ccc(C(=O)Nc2cccc3cccnc23)cc1Cl -14.1%, COc1cccc(OC)c1C(=O)NCCc1csc(-c2ccc(Cl)cc2)n1 -1.13%, COC(=O)c1c(-c2cccs2)csc1NC(=O)COc1ccc(C)cc1 -7.81%, Cn1nnnc1SCCNCc1cc(Br)ccc1OCc1ccccc1Cl -24.6%, CN1C(=O)CC(c2ccccc2)C1=O (configuration not stated) -4.44%, COc1ccc(-c2csc(=Nc3ccccc3)n2CCO)cc1F -11.4%, CCOC(=O)c1c(Nc2ccc(OC)cc2)nnc(-c2ccccc2)c1-c1ccccc1 -10.9%, CCOc1ccc(NC(=O)COc2ccc(S(=O)(=O)NC3CCCCC3)cc2)cc1 0.919%, CN1CCN(c2ncc3c(n2)CCN(Cc2ccc(Br)s2)C3)CC1 -12%, CCOC(=O)N1CCc2c(sc3c2c(=O)n(-c2ccc(Cl)cc2)c(=O)n3CC(C)C)C1 -0.349%, COc1ccc(Nc2c(-c3cccc(O)c3)nc3cnccn23)cc1 -12.1%, CN(C)CCN(Cc1ccccc1)c1ccccn1 -17.4%, Cc1ccc(Cl)cc1Nc1nn2c(=O)c3ccc(C(=O)NCc4ccc(F)cc4)cc3nc2s1 -8.6%, Cc1cccc(-c2nc3scc(CCNS(=O)(=O)c4ccc5c(c4)OCCO5)n3n2)c1 -15.5%, Cc1cccn2c(=O)c(C(=O)NCc3cccc(F)c3)cnc12 0.271%, CCOc1ccc(CNC(=O)Cc2ccc(NC(=O)N3CCSc4ncccc43)cc2)cc1 -12.8%, Cn1c(=O)c2sccc2n2c(CCC(=O)NCc3ccc(Cl)cc3)nnc12 -14.8%, CC(=O)c1ccc(N2CCN(C(=O)C3CCN(S(=O)(=O)c4cn(C)cn4)CC3)CC2)cc1 -9.54%, CCCOc1ccc(-c2nc(SCC(=O)c3ccc(Cl)cc3)n[nH]2)cc1 -12.9%, Cc1ccc(S(=O)(=O)c2nc(S(=O)(=O)c3ccccc3)sc2NCCCOC(C)C)cc1 -28.3%, CCc1ccc(NC(=O)Cn2ccn(-c3ccc(C)c(C)c3)c(=O)c2=O)cc1 -11%, COc1ccccc1-c1cc(C(=O)NCc2ccccc2)c2c(-c3ccc(C)cc3)[nH]nc2n1 -19.7%, COc1ccc(NC(=O)c2oc3ccccc3c2NC(=O)Cc2coc3c(C)c(C)ccc23)cc1 -7.72%, COc1ccc(-c2nc3cc(NC(=O)CSc4ccc(C)cc4)ccc3o2)cc1 -17.4%, Cc1ccc(S(=O)(=O)NCCc2cn3ccsc3n2)c(C)c1 -17.9%, CCN(CC)CCNC(=O)c1c2c(nc3ccccc13)C(=O)N(C1CCCCC1)C2 -22.2%, Cc1ccccc1NC(=O)Cn1c(=O)n(Cc2ccc3c(c2)OCO3)c(=O)c2ccccc21 -11.7%, COc1cccc(NC(=O)Cn2cc(C(=O)c3ccc(C)cc3)c(=O)c3cc(OC)ccc32)c1 -10.5%, CCOc1ccc(NC(=O)/C(C#N)=C\c2ccc(-c3ccc(Cl)cc3)o2)cc1 2.74%, O=C(CSc1n[nH]c(-c2ccc(F)cc2)n1)NCCc1ccccc1 -3.58%, Cc1c(Cl)cccc1NC(=O)CCS(=O)(=O)c1ccc2c(c1)CC(=O)N2C -9.93%, CC(=O)Nc1ccc(Nc2ncnc3c2cnn3C)cc1 -6.52%, CCOC(=O)c1c(NC(=O)c2cc(OC)c(OC)c(OC)c2)sc2c1CCCC2 -6.51%, Cc1ccc(C)n1-c1nnc(N2CCCC(C(=O)Nc3ccccc3Br)C2)s1 (configuration not stated) -0.551%, COc1ccccc1-c1noc(CCCC(=O)Nc2cccc(C(F)(F)F)c2)n1 -14.1%, CCCN(CCC)C(=O)Cn1c(=O)n(CCCCCC(=O)NCc2ccc3c(c2)OCO3)c(=O)c2sccc21 -11%, CC1CCN(c2ncnc3c2c(-c2ccccc2)cn3-c2ccc(Br)cc2)CC1 -4.05%, CCOc1ccccc1CNC(=O)c1oc2c(c1C)-c1[nH]ncc1CC2 -7.14%, C[n+]1cc2c3c(ccc2c2ccc4cc5c(cc4c21)OCO5)OCO3 -11.5% [at 23.8 µM], COc1ccc(-c2cn3nc(N4CCC(C(=O)Nc5cc(Cl)ccc5C)CC4)sc3n2)cc1 -9.97%, COc1ccc(NC(=O)CCCn2c(=O)c3cccn3c3cccnc32)cc1Cl -2.47%, CC(C)(C)c1ccc(OCC(=O)NCC2(N3CCOCC3)CCCCC2)cc1 -0.828%, O=C(CN1C(=O)C2(SCC(=O)N2c2cccc(Cl)c2)c2ccccc21)NCc1ccccc1 (configuration not stated) -22.9%, CCc1cccc(-n2c(=O)c3cccnc3n2CC(=O)NCc2ccc(C)cc2)c1 -13.4%, O=C(CCCCCn1c(=O)c2sccc2n(CC(=O)Nc2cc(C(F)(F)F)ccc2Cl)c1=O)NCc1ccccc1Cl -14.6%, Cc1ccc(NC(=O)Cn2cnc3onc(-c4ccc(F)cc4)c3c2=O)c(Cl)c1 -27.2%, COc1ccccc1-c1cc2nc(C)c(CCC(=O)NCCc3cccc(C)c3)c(C)n2n1 -40%, CC1=C(C(=O)Nc2cc(Cl)ccc2C)C(c2sccc2C)n2ncnc2N1 (configuration not stated) -17.7%, Cc1ccc(Cl)cc1N1CCN(C(=O)CSc2cc(=O)n(C)c3ccccc23)CC1 -48.7%, Cc1cccc(CC(=O)Nc2ccc3nc(N4CCC(C)CC4)cc(C)c3c2)c1 -17.2%, CSc1ncc(C(=O)NCc2ccc(C)cc2)c(C)n1 -6.11%, COc1ccc(C(=O)Nc2ccc3nc(SCC(=O)N(C)c4ccccc4)sc3c2)cc1 -27.7%, O=C(CSc1cn(CCNC(=O)c2cccc(C(F)(F)F)c2)c2ccccc12)Nc1ccc2c(c1)OCCO2 -6.52%, CC(C)(C)c1ccc2c(c1)N(CC(=O)NCCCN1CCN(c3ccccc3F)CC1)C(=O)CO2 -6.41%, Cc1cc(C)c(NC(=O)Cn2c(=O)n(CCC(=O)NCc3ccccc3Cl)c(=O)c3sccc32)c(C)c1 -9.72%, O=C(Nc1nc2ccc(F)cc2s1)c1nc(S(=O)(=O)Cc2ccccc2F)ncc1Cl -14.5%, CC1CCN(S(=O)(=O)c2ccc3c(c2)N(CC(=O)NCCCN2CCCCC2)C(=O)CS3)CC1 -13.2%, Cc1ccc(CNC(=O)c2cc(-c3ccc(C)cc3)nc3n[nH]c(-c4cccc([N+](=O)[O-])c4)c23)cc1 -4.76%, O=C(c1ccc(F)cc1)N1CCC(c2nc3ccccc3s2)CC1 -2.95%, CN(C)C(=S)SC(=S)N(C)C -15.6%, CC(C)N(C(=O)Cn1cc(S(=O)(=O)Cc2ccc(Br)cc2)c2ccccc21)C(C)C -13%, Cc1c(C(=O)Nc2ccc(F)c(C(F)(F)F)c2)sc2nc(-c3ccccc3)cn12 -7.33%, CCOc1ccc(S(=O)(=O)NCCc2c(C)[nH]c3c(Cl)cccc23)cc1C -11.2%, CSc1nc2c(sc3ccccc32)c(=O)n1Cc1ccc(C)cc1 -9.79%, CCn1c(=O)c(=O)n(CC)c2cc(N3CCCCC3)c(NC(=O)c3ccccc3OC)cc21 -23.3%, COc1ccccc1-c1c(C)nn2c(N3CCN(c4ccccc4)CC3)cc(C)nc12 -7.87%, CCOc1ccc(-c2nc(CSCC(=O)NCCc3ccc(OCC)c(OCC)c3)c(C)o2)cc1 -10.4%, CCCN1CCN(CC2=C(C(=O)OCC)C(c3ccc(OC(C)C)cc3)NC(=O)N2)CC1 (configuration not stated) -7.85%, CCC(C)NC(=O)CSc1c2c(nc3cc(Cl)ccc13)CCCC2 (configuration not stated) -8.9%, COc1ccc(C(=O)Nc2cc(-c3nc4ccccc4s3)ccc2OC)cc1 -11.1%, O=C(Nc1ccc2nc(SCC(=O)N3CCOCC3)sc2c1)c1ccc(Br)cc1 -11.6%, COc1cccc(CNC(=O)C(=O)NCC(c2ccc3c(c2)OCO3)N2CCOCC2)c1 (configuration not stated) -6.05%, CCCOC1(C(F)(F)F)NC(=O)N(c2cccc(Cl)c2)C1=O (configuration not stated) -14.7%, C=Cc1ccc(Cn2c(C(=O)O)c(CNC3CCCCC3)c3ccc(OC)cc32)cc1 -1.23%, O=C(NCCc1ccc(Cl)cc1)C(=O)NCC(c1cccs1)S(=O)(=O)c1cccs1 (configuration not stated) 5.21%, COc1ccc(OC)c(CNC(=O)CN2N=C(c3ccc(Cl)cc3)CCC2=O)c1 -8.79%, COc1ccc(-n2nc3cc(C)c(NC(=O)Cc4ccc(Cl)cc4)cc3n2)cc1 -0.709%, Cc1cc2oc(C(=O)Nc3cccc(-c4nc5ccccc5o4)c3)c(C)c2cc1C -9.38%, CCOC(=O)c1ccccc1NC(=O)Nc1cc2c(cc1N1CCCC1)n(C)c(=O)n2C 11.7%, CCOc1ccc(NC(=O)CSc2nnc(CNC(=O)C34CC5CC(CC(C5)C3)C4)n2CC)cc1 -13.4%, COc1cccc(Cn2c(C)c(CNC3CCCCC3)c(C(=O)O)c2C)c1 -14.3%, CCCC12CN3CC(CCC)(CN(C1)C3c1ccc(OC(C)C)cc1)C2=O (configuration not stated) -30.2%, Cc1c(C(=O)N(C)C)sc2c1c(=O)n(-c1ccc(Cl)c(Cl)c1)c(=O)n2CC(=O)N1CCCCC1C (configuration not stated) -11.5%, COc1cc(C(=O)N(Cc2ccc(N(C)C)cc2)CC2CCCO2)cc(OC)c1OC (configuration not stated) -9.42%, COc1ccc(-c2noc(-c3ccc(N4CCN(c5ccccc5OC)CC4)c([N+](=O)[O-])c3)n2)cc1 -8.03%, CCCN1CN=C(NS(=O)(=O)c2ccc(NC(C)=O)cc2)NC1 -13.7%, O=C(NCCc1ccccc1)c1ccc(Cn2c(SCc3ccccc3F)nc3cccnc32)cc1 -0.116%, O=C(CSc1nc(=O)n(Cc2ccncc2)c2c1CCC2)Nc1ccc(F)cc1F -24.8%, CC(Oc1ccccc1)C(=O)Nc1ccccc1C(=O)OCc1cc(=O)n2nc(C(C)C)sc2n1 (configuration not stated) -6.37%, CCc1ccc(NC(=O)CSc2nc(-c3cccc(OC)c3)nc3c2Cc2c(CO)cnc(C)c2O3)cc1 -19.8%
